Laboratory results published in the supplement of paper PMC11417369.
± gives the standard deviation of the averaged measurements. This is one part of the list.

These sequences were tested on PfAP2-LT AP2 domain (GST-tagged) (assay: gcPBM binding intensity (ln(normalized median fluorescence intensity)); higher = stronger DNA binding).
Method in brief: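 GST-tagged P. falciparum DNA-binding domains, expressed in E. coli (about 25 μg on average), were applied for 1 h to an Agilent 4 × 180k array of primer-extended double-stranded 36-bp intergenic genomic probes plus negative controls. The binding buffer was 1× PBS with 1% milk, 0.2 mg/ml BSA, 0.5% salmon testes DNA and 0.03% Triton X-100. Bound protein was detected with Alexa488 anti-GST antibody and scanned at 488 nm. Binding intensity is the highest Masliner-normalised natural-log median intensity across replicate spots of either probe orientation.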

Point of comparison: “AATAAATAAATATATACACACATATATGTCTACATA [CACACA_site3158]”, “gcPBM binding intensity (ln)” value 9.14 ± 0.43. Against it:
- CACAAAATAAATTAAACACACAACATCATAGATGTA [CACACA_site4619] — within error, 8.9 ± 0.45
- TTTATATATTTCATAATACACACGAAAAAAAAAAAA [CACACA_site2970] — within error, 8.53 ± 0.42
- TGTCATCATCTTAAATGTACAAAAAGGAAATATAAA [XGTACX_site1529] — within error, 8.6 ± 0.52
- TTTTTATTTACACTTTTTATTTATATATTATGTACG [CACACA_negctrl_site158] — within error, 8.85 ± 0.6
- ATATAATCAGCTTCTCTTTTATGCTAAAAAAAAAAA [CACACA_negctrl_site1310] — lower, 8.25 ± 0.3
- ATAAATAATATAAATACACACTAAAAAAAATATATA [CACACA_site4456] — within error, 8.91 ± 0.5
- TTAGTTTATTGGTACTGTACTTTTTTTTTCTCCATT [XGTACX_site8618] — within error, 8.91 ± 0.42
- ATTTTTGAACGGTACAGTACAGAATTTAATTAACCC [XGTACX_site47] — within error, 8.77 ± 0.38
- TATCATATATGAAGGTGTACGATTTATTATATAAAT [XGTACX_site7010] — within error, 8.77 ± 0.42
- TTATTTAAAATTTTTATGCGTATATATATAGGAACA [CACACA_negctrl_site388] — within error, 8.35 ± 0.39
- TTGCATTACGAACATACACACAGAATAACTGAAAAC [CACACA_site3025] — within error, 9.16 ± 0.39
- TTCGATGAATATACAAGTACATATCCTTACGAACTG [XGTACX_site1650] — within error, 8.63 ± 0.41
- TTTTTATTAAGACATGCATGGAAACGCACTATTTTA [TGCATGCA_site999] — within error, 8.71 ± 0.43
- TATATATGCATTAAATGATGTTCCTGTTTTTTAAAA [CACACA_negctrl_site1378] — within error, 8.45 ± 0.37
- ATACGAAGTACGTACACACACTTATATGTTACTAAA [CACACA_site7812] — within error, 9.26 ± 0.33
- TTTATATCATTTCTTAAAAAAAAGGAGGTAATAGAC [TGCATGCA_negctrl_site555] — within error, 8.61 ± 0.37
- GTTAAGCAATATATATGTACTTATGGAATAGAAAAA [XGTACX_site3693] — within error, 8.68 ± 0.47
- AAGTTACAGAATATCACACATAAATTATCTGTATAT [CACACA_site5116] — within error, 8.79 ± 0.4
- TCAATTAATTATTTTTGTACACAAGAATTACTGAAT [XGTACX_site6401] — within error, 8.56 ± 0.44
- GTGTGATATAATTTTTTTAGAGCTTTATAATATTAT [CACACA_negctrl_site233] — within error, 8.62 ± 0.42
- TATGTTGATGATATTACACACCCAATGAGAAAAGGA [CACACA_site7060] — within error, 8.94 ± 0.41
- CAACCATTTGTAGGTAAACACACATTATTATTAATA [CACACA_site8842] — within error, 8.88 ± 0.43
- TGTTTATACATCAGGTGTACGCAAAATAATTGTATG [XGTACX_site206] — within error, 8.87 ± 0.39
- TTTATTTACTATTAAAGTACTAAATCATATAATTAT [XGTACX_site2580] — within error, 8.56 ± 0.45
- TATACATATACATATACACACACACCCATAAATAAA [CACACA_site8372] — higher, 9.8 ± 0.22
- TTAACACATGCTTGGTCACACACGTATGCATATTTA [CACACA_site2127] — within error, 9.3 ± 0.32
- TTTGTCAAATAATATTGTACTAAAAAATTTTGCCTT [XGTACX_site7485] — within error, 8.38 ± 0.51
- TATTTGTAATATAACACACACAAAAAAAGACTCGGA [CACACA_site1681] — within error, 9.31 ± 0.3
- ATACACACAGCCTAAACATGCATATAGAAAAAAGAA [TGCATGCA_site1028] — the same, 9.14 ± 0.48
- ATATATATATAATAAAGTACAAATTCTAAATGATAT [XGTACX_site570] — within error, 8.86 ± 0.36
- TATCTTATGTCTGAAAGTACAAATTTTTTTCTACTT [XGTACX_site2208] — within error, 8.52 ± 0.38
- ACTACGAATGGTAGAGTGCAGTCTGGAGAAAAGTAC [GTGCAC_site9681] — within error, 9.02 ± 0.47
- CTTTTTTTTTTTTTTGCGCACTGTTTAAAGGGAAAT [GTGCAC_site9815] — within error, 8.83 ± 0.54
- ATTATCTATCGTTTTTGTACTTACACCTTAATACAA [XGTACX_site7337] — within error, 8.95 ± 0.47
- AAATATTTTTAGAGTGCATGTAATAAAAATATAATG [TGCATGCA_site19] — within error, 8.72 ± 0.47
- GTGCAAAATATTTTTACACACAAATTTTTACAACAG [CACACA_site3357] — within error, 8.98 ± 0.42
- AAAAATAAATAAGACACACACAAAAAAAAAAAAAAA [CACACA_site1432] — within error, 9.05 ± 0.48
- AAATGAGATATAAAATGTACATATTGTAAGTAAACA [XGTACX_site1237] — within error, 9.03 ± 0.45
- TTAATTATATCAGGACGTACTAATATAAATATATAT [XGTACX_site8909] — within error, 8.7 ± 0.44
- GGGATATATTATTATACACACATATATAAAAGCTTT [CACACA_site2445] — within error, 9.03 ± 0.41
- ATATGACTGTTCATTTGTACGTATAATTATATACGT [XGTACX_site3372] — within error, 8.92 ± 0.38
- AAATAATATATTCTATATAATAAATTATAAATATAA [GTGCAC_negctrl_site558] — within error, 8.23 ± 0.5
- ATATATATATATATATATATATATATATATTATATA [XGTACX_negctrl_site48] — within error, 9.12 ± 0.092
- ATACAACTAATAAGTAGTACAATATACATATATTAT [XGTACX_site7086] — within error, 8.89 ± 0.49
- TTTTTTTTTTTTTTTTATTTATATATATATATATAT [CACACA_negctrl_site582] — within error, 8.75 ± 0.35
- AAAAAAAATGAAAGGTGTACACATACAAACATAGAA [XGTACX_site3517] — within error, 9.4 ± 0.57
- TAATTTAGATATATAAAGAATTAAAGTTAACATTCT [CACACA_negctrl_site726] — lower, 8.25 ± 0.44
- TTTTTCAGATCCTATATAGTATCATATAAATTCCAT [CACACA_negctrl_site56] — within error, 8.49 ± 0.37
- TTAAGAAAAAAAAAAAGTACACACATATAATATATA [XGTACX_site6268] — within error, 8.94 ± 0.56
- CGTTGGTATTAAAAGGTGCAATGAAATAATATATTA — within error, 8.66 ± 0.52
- AAGATCGCATGAAATGAACACACATAAAAAAAATAT [CACACA_site9353] — within error, 9.3 ± 0.54
- AATGTAACAACTTTTTGTACTTAAGAAATAATAAAT [XGTACX_site3310] — within error, 8.58 ± 0.42
- TAAAAAATTATATTCACACACATACCCATATATATA [CACACA_site4458] — within error, 9.22 ± 0.21
- TAAAATTTATAAACTACACACATATATATAGTAATA [CACACA_site3728] — within error, 8.8 ± 0.42
- TGAGCTTCAACAATATGTACATAAAATATATTACAT [XGTACX_site4763] — within error, 8.79 ± 0.4
- TTAATAAAAGCCCATGCACACCTTAGAAAGTTTTAT [CACACA_site8003] — within error, 8.7 ± 0.39
- GTATTATAGTATAATACACACCCAAATATTAAAAAG [CACACA_site7404] — within error, 9.02 ± 0.41
- TTTCTTAAAATGTTATGTACATATTTCGTTTCAAAG [XGTACX_site6102] — within error, 8.54 ± 0.41
- ATATATTTCAAAGGGGTGCAGGCATATTTAAGCAAA — within error, 8.69 ± 0.49
- TCTTTTTAATTTATATGTACTTATATTAATTATAAG [XGTACX_site7524] — within error, 8.45 ± 0.45
- TTTTTCTTTTGATGTTGTACATATATATCATATAAT [XGTACX_site1189] — within error, 8.74 ± 0.37
- GTGCATATACAAATATGTACTTAAACGTTTTTTTTT [XGTACX_site7362] — within error, 8.81 ± 0.45
- AAGACTTCTCCATATACACACACCAACAAATATAAA [CACACA_site2779] — within error, 9.35 ± 0.33
- GTTTATTCATCATACGGTACACATAAATAATATATA [XGTACX_site6931] — within error, 8.71 ± 0.43
- GATGAATAAATCAAAGCACACATACACCCACATATA [CACACA_site7986] — within error, 9.67 ± 0.13
- ATTTTTTTTTTTTTTTTTTGGTTTTCTTTAGGAGTT [CACACA_negctrl_site1258] — within error, 8.57 ± 0.54
- TTCGTTTAAATCAAGTGTACATATTATATATAATAT [XGTACX_site7599] — within error, 8.79 ± 0.4
- TAAATAATATCCCTTTGTACGTATTTTTTTTTATTA [XGTACX_site7303] — within error, 8.78 ± 0.5
- CGTTATATATGTATTACATGCAATATATGTACGTAA [TGCATGCA_site274] — within error, 8.8 ± 0.3
- GAAATAAGTTAAAATAGTACGTAGTGTTCCTTAAGT [XGTACX_site6557] — within error, 8.87 ± 0.52
- TTAGGAAAACAAAAATGTACGCATATATATTATTGA [XGTACX_site8288] — within error, 8.65 ± 0.59
- TTAAAAATAATATATTGTACACATACTTATTTTAAT [XGTACX_site1348] — within error, 8.6 ± 0.39
- TATATTTGTACATGATATTTTTTTTTTCTTTTAAAA [CACACA_negctrl_site754] — within error, 8.44 ± 0.54
- TGTATTTAGAAACATACACACATATTAAGTTTACAT [CACACA_site5689] — within error, 8.98 ± 0.45
- ATATATCTGTATGGCACACACGGATAAATATATATA [CACACA_site4668] — within error, 9.21 ± 0.4
- GGAAAATTATCAATAGCATGCAAAATGTGAATATTA [TGCATGCA_site901] — within error, 9.04 ± 0.42
- TTTCCTCATTTTATCATACACACTTATTTATATGTG [CACACA_site900] — within error, 9.04 ± 0.49
- AGAATAATACAAAAATGTACATTAATAAAAAGATAG [XGTACX_site780] — within error, 9.15 ± 0.68
- GCCAAAATATAATTTACACACTTATTAAATAATTAT [CACACA_site236] — within error, 8.69 ± 0.42
- TTATTATTTCTTAGTAGTACTATATAATTTTTTTTT [XGTACX_site1847] — within error, 8.62 ± 0.45
- ATAGTATCTGGTAGCTGTACGAGTCGTAGAGAGTAG [XGTACX_site2546] — within error, 9.01 ± 0.43
- TCGTGTTAAACTTTTACACACAAACTTGCAATAATT [CACACA_site7745] — within error, 9.09 ± 0.42
- TAATAACTACAAAAAAAAAAGAAAAATAGAAAAAGG [CACACA_negctrl_site1102] — within error, 8.62 ± 0.64
- TTTGTTTAAATTAAATGTACATAAAGAATAATATAT [XGTACX_site5093] — within error, 8.49 ± 0.3
- TGCTTTATTATTTATTGTACATGTAAAATGAGAGAG [XGTACX_site2288] — within error, 8.52 ± 0.38
- AGAAGGTAAATAATTTACCCATATATATAAATATAT [GTGCAC_negctrl_site631] — within error, 8.62 ± 0.49
- AATTATATGAAATAAACACACATATGTAATATTACA [CACACA_site1928] — within error, 8.9 ± 0.41
